{"source": "the supplement of paper PMC8728848", "binders": {"B1": {"name": "Tectonin 2 (Laccaria bicolor) (protein)", "chain": "MPWKGISGSLSRISAGSVTNVWGVNAANNIYRYTGDDAKPWVQIPGALTDIGAAADGTVWGVNAAGNIYRYVWDSNHWTQIKGALKRISAGSRTNVWGVNAGGAIYRYTGDDANPWVQIPGVLSDIGAGADGTVWGVNAAGEIYRYTGDQGDPNHWVKIPGALSAISAGIKTNVWGVNSANNIYTSTGDDKNPWLGIGGSLVDIGAGTDGVVWGVNAGGGIYRWIRD"}}, "assay_in_all_cases": "glycan array binding signal (z-score within array); higher = stronger binding", "conditions_in_all_cases": "glycan notation: IUPAC condensed, linker removed", "key": {"[1]": {"molecular_target": "Man(a1-2)Man(a1-3)[Man(a1-2)Man(a1-6)]Man(a1-6)[Man(a1-2)Man(a1-2)Man(a1-3)]Man(b1-4)GlcNAc(b1-4)GlcNAc", "method_in_brief": "(§1)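 The binding signal is a Z-score computed within each array and averaged over linkers. Arrays of the same protein sequence at different concentrations or buffers were also averaged together. Data originate from 3228 arrays in the Consortium for Functional Glycomics database, kept only where the protein sequence was available.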"}, "[2]": {"molecular_target": "Man(a1-2)Man(a1-3)[Man(a1-6)]Man(a1-6)[Man(a1-2)Man(a1-3)]Man(b1-4)GlcNAc(b1-4)GlcNAc", "method_in_brief": "as §1"}, "[3]": {"molecular_target": "Man(a1-2)Man(a1-6)[Man(a1-3)]Man(a1-6)[Man(a1-2)Man(a1-2)Man(a1-3)]Man", "method_in_brief": "as §1"}, "[4]": {"molecular_target": "Man(a1-2)Man(a1-6)[Man(a1-3)]Man(a1-6)[Man(a1-2)Man(a1-2)Man(a1-3)]Man(b1-4)GlcNAc(b1-4)GlcNAc", "method_in_brief": "as §1"}, "[5]": {"molecular_target": "Man(a1-3)[Man(a1-6)]Man", "method_in_brief": "as §1"}, "[6]": {"molecular_target": "Man(a1-3)[Man(a1-6)]Man(a1-6)[Man(a1-2)Man(a1-3)]Man(b1-4)GlcNAc(b1-4)GlcNAc", "method_in_brief": "as §1"}, "[7]": {"molecular_target": "Man(a1-3)[Man(a1-6)]Man(a1-6)[Man(a1-3)]Man", "method_in_brief": "as §1"}, "[8]": {"molecular_target": "Man(a1-3)[Man(a1-6)]Man(a1-6)[Man(a1-3)]Man(b1-4)GlcNAc(b1-4)GlcNAc", "method_in_brief": "as §1"}, "[9]": {"molecular_target": "Man(a1-3)[Man(a1-6)]Man(b1-4)GlcNAc(b1-4)GlcNAc", "method_in_brief": "as §1"}, "[10]": {"molecular_target": "Man(a1-6)Man", "method_in_brief": "as §1"}, "[11]": {"molecular_target": "Man(b1-4)GlcNAc", "method_in_brief": "as §1"}, "[12]": {"molecular_target": "Neu5Ac(a2-3)Gal", "method_in_brief": "as §1"}, "[13]": {"molecular_target": "Neu5Ac(a2-3)Gal(b1-3)GalNAc", "method_in_brief": "as §1"}, "[14]": {"molecular_target": "Neu5Ac(a2-3)Gal(b1-3)GalNAc(b1-3)Gal(a1-4)Gal(b1-4)Glc", "method_in_brief": "as §1"}, "[15]": {"molecular_target": "Neu5Ac(a2-3)Gal(b1-3)GalNAc(b1-4)[Neu5Ac(a2-3)]Gal(b1-4)Glc", "method_in_brief": "as §1"}, "[16]": {"molecular_target": "Neu5Ac(a2-3)Gal(b1-3)GalNAc(b1-4)[Neu5Ac(a2-8)Neu5Ac(a2-3)]Gal(b1-4)Glc", "method_in_brief": "as §1"}, "[17]": {"molecular_target": "Neu5Ac(a2-3)Gal(b1-3)GalNAc6S", "method_in_brief": "as §1"}, "[18]": {"molecular_target": "Neu5Ac(a2-3)Gal(b1-3)GlcNAc", "method_in_brief": "as §1"}, "[19]": {"molecular_target": "Neu5Ac(a2-3)Gal(b1-3)GlcNAc(b1-2)Man(a1-3)[Neu5Ac(a2-3)Gal(b1-3)GlcNAc(b1-2)Man(a1-6)]Man(b1-4)GlcNAc(b1-4)GlcNAc", "method_in_brief": "as §1"}, "[20]": {"molecular_target": "Neu5Ac(a2-3)Gal(b1-3)GlcNAc(b1-3)Gal(b1-3)GlcNAc", "method_in_brief": "as §1"}, "[21]": {"molecular_target": "Neu5Ac(a2-3)Gal(b1-3)GlcNAc(b1-3)Gal(b1-4)GlcNAc", "method_in_brief": "as §1"}, "[22]": {"molecular_target": "Neu5Ac(a2-3)Gal(b1-3)GlcNAc(b1-3)GalNAc", "method_in_brief": "as §1"}, "[23]": {"molecular_target": "Neu5Ac(a2-3)Gal(b1-3)GlcNAc6S", "method_in_brief": "as §1"}, "[24]": {"molecular_target": "Neu5Ac(a2-3)Gal(b1-3)[Fuc(a1-4)]GlcNAc", "method_in_brief": "as §1"}, "[25]": {"molecular_target": "Neu5Ac(a2-3)Gal(b1-3)[Fuc(a1-4)]GlcNAc(b1-3)Gal(b1-3)[Fuc(a1-4)]GlcNAc", "method_in_brief": "as §1"}, "[26]": {"molecular_target": "Neu5Ac(a2-3)Gal(b1-3)[Fuc(a1-4)]GlcNAc(b1-3)Gal(b1-4)[Fuc(a1-3)]GlcNAc", "method_in_brief": "as §1"}, "[27]": {"molecular_target": "Neu5Ac(a2-3)Gal(b1-3)[Neu5Ac(a2-3)Gal(b1-4)]GlcNAc", "method_in_brief": "as §1"}, "[28]": {"molecular_target": "Neu5Ac(a2-3)Gal(b1-3)[Neu5Ac(a2-6)]GalNAc", "method_in_brief": "as §1"}, "[29]": {"molecular_target": "Neu5Ac(a2-3)Gal(b1-4)Glc", "method_in_brief": "as §1"}, "[30]": {"molecular_target": "Neu5Ac(a2-3)Gal(b1-4)GlcNAc", "method_in_brief": "as §1"}, "[31]": {"molecular_target": "Neu5Ac(a2-3)Gal(b1-4)GlcNAc(b1-2)Man(a1-3)[GlcNAc(b1-2)Man(b1-4)GlcNAc(b1-2)Man(a1-6)]Man(b1-4)GlcNAc(b1-4)GlcNAc", "method_in_brief": "as §1"}, "[32]": {"molecular_target": "Neu5Ac(a2-3)Gal(b1-4)GlcNAc(b1-2)Man(a1-3)[Neu5Ac(a2-6)Gal(b1-4)GlcNAc(b1-2)Man(a1-6)]Man(b1-4)GlcNAc(b1-4)GlcNAc", "method_in_brief": "as §1"}, "[33]": {"molecular_target": "Neu5Ac(a2-3)Gal(b1-4)GlcNAc(b1-3)Gal", "method_in_brief": "as §1"}, "[34]": {"molecular_target": "Neu5Ac(a2-3)Gal(b1-4)GlcNAc(b1-3)Gal(b1-3)GlcNAc", "method_in_brief": "as §1"}, "[35]": {"molecular_target": "Neu5Ac(a2-3)Gal(b1-4)GlcNAc(b1-3)Gal(b1-4)GlcNAc", "method_in_brief": "as §1"}, "[36]": {"molecular_target": "Neu5Ac(a2-3)Gal(b1-4)GlcNAc(b1-3)Gal(b1-4)GlcNAc(b1-3)Gal(b1-4)GlcNAc", "method_in_brief": "as §1"}, "[37]": {"molecular_target": "Neu5Ac(a2-3)Gal(b1-4)GlcNAc(b1-3)Gal(b1-4)[Fuc(a1-3)]GlcNAc", "method_in_brief": "as §1"}, "[38]": {"molecular_target": "Neu5Ac(a2-3)Gal(b1-4)GlcNAc(b1-3)GalNAc", "method_in_brief": "as §1"}, "[39]": {"molecular_target": "Neu5Ac(a2-3)Gal(b1-4)GlcNAc(b1-6)[Gal(b1-3)]GalNAc", "method_in_brief": "as §1"}, "[40]": {"molecular_target": "Neu5Ac(a2-3)Gal(b1-4)GlcNAc(b1-6)[Neu5Ac(a2-3)Gal(b1-3)]GalNAc", "method_in_brief": "as §1"}, "[41]": {"molecular_target": "Neu5Ac(a2-3)Gal(b1-4)GlcNAc6S", "method_in_brief": "as §1"}, "[42]": {"molecular_target": "Neu5Ac(a2-3)Gal(b1-4)[Fuc(a1-3)]GlcNAc", "method_in_brief": "as §1"}, "[43]": {"molecular_target": "Neu5Ac(a2-3)Gal(b1-4)[Fuc(a1-3)]GlcNAc(b1-3)Gal", "method_in_brief": "as §1"}, "[44]": {"molecular_target": "Neu5Ac(a2-3)Gal(b1-4)[Fuc(a1-3)]GlcNAc(b1-3)Gal(b1-4)GlcNAc", "method_in_brief": "as §1"}, "[45]": {"molecular_target": "Neu5Ac(a2-3)Gal(b1-4)[Fuc(a1-3)]GlcNAc(b1-3)Gal(b1-4)[Fuc(a1-3)]GlcNAc(b1-3)Gal(b1-4)[Fuc(a1-3)]GlcNAc", "method_in_brief": "as §1"}}, "note": "The other results are listed elsewhere or left out."}
{"binder": "B1", "values": [{"measurement": "glycan array binding signal (z-score)", "setting": "[1]", "result": -0.318}, {"measurement": "glycan array binding signal (z-score)", "setting": "[2]", "result": -0.36}, {"measurement": "glycan array binding signal (z-score)", "setting": "[3]", "result": -0.264}, {"measurement": "glycan array binding signal (z-score)", "setting": "[4]", "result": 0.033}, {"measurement": "glycan array binding signal (z-score)", "setting": "[5]", "result": -0.426}, {"measurement": "glycan array binding signal (z-score)", "setting": "[6]", "result": -0.408}, {"measurement": "glycan array binding signal (z-score)", "setting": "[7]", "result": -0.201}, {"measurement": "glycan array binding signal (z-score)", "setting": "[8]", "result": -0.297}, {"measurement": "glycan array binding signal (z-score)", "setting": "[9]", "result": -0.28}, {"measurement": "glycan array binding signal (z-score)", "setting": "[10]", "result": -0.438}, {"measurement": "glycan array binding signal (z-score)", "setting": "[11]", "result": -0.679}, {"measurement": "glycan array binding signal (z-score)", "setting": "[12]", "result": -0.237}, {"measurement": "glycan array binding signal (z-score)", "setting": "[13]", "result": -0.204}, {"measurement": "glycan array binding signal (z-score)", "setting": "[14]", "result": 0.073}, {"measurement": "glycan array binding signal (z-score)", "setting": "[15]", "result": 2.34}, {"measurement": "glycan array binding signal (z-score)", "setting": "[16]", "result": 0.34}, {"measurement": "glycan array binding signal (z-score)", "setting": "[17]", "result": 0.532}, {"measurement": "glycan array binding signal (z-score)", "setting": "[18]", "result": -0.123}, {"measurement": "glycan array binding signal (z-score)", "setting": "[19]", "result": -0.194}, {"measurement": "glycan array binding signal (z-score)", "setting": "[20]", "result": -0.469}, {"measurement": "glycan array binding signal (z-score)", "setting": "[21]", "result": -0.039}, {"measurement": "glycan array binding signal (z-score)", "setting": "[22]", "result": 0.64}, {"measurement": "glycan array binding signal (z-score)", "setting": "[23]", "result": -0.427}, {"measurement": "glycan array binding signal (z-score)", "setting": "[24]", "result": -0.236}, {"measurement": "glycan array binding signal (z-score)", "setting": "[25]", "result": 0.719}, {"measurement": "glycan array binding signal (z-score)", "setting": "[26]", "result": -0.208}, {"measurement": "glycan array binding signal (z-score)", "setting": "[27]", "result": 0.892}, {"measurement": "glycan array binding signal (z-score)", "setting": "[28]", "result": 2.15}, {"measurement": "glycan array binding signal (z-score)", "setting": "[29]", "result": -0.206}, {"measurement": "glycan array binding signal (z-score)", "setting": "[30]", "result": 0.036}, {"measurement": "glycan array binding signal (z-score)", "setting": "[31]", "result": 0.55}, {"measurement": "glycan array binding signal (z-score)", "setting": "[32]", "result": 2.09}, {"measurement": "glycan array binding signal (z-score)", "setting": "[33]", "result": -0.218}, {"measurement": "glycan array binding signal (z-score)", "setting": "[34]", "result": 0.485}, {"measurement": "glycan array binding signal (z-score)", "setting": "[35]", "result": 0.692}, {"measurement": "glycan array binding signal (z-score)", "setting": "[36]", "result": 0.567}, {"measurement": "glycan array binding signal (z-score)", "setting": "[37]", "result": 2.47}, {"measurement": "glycan array binding signal (z-score)", "setting": "[38]", "result": -0.133}, {"measurement": "glycan array binding signal (z-score)", "setting": "[39]", "result": -0.151}, {"measurement": "glycan array binding signal (z-score)", "setting": "[40]", "result": -0.009}, {"measurement": "glycan array binding signal (z-score)", "setting": "[41]", "result": -0.071}, {"measurement": "glycan array binding signal (z-score)", "setting": "[42]", "result": 0.064}, {"measurement": "glycan array binding signal (z-score)", "setting": "[43]", "result": 0.824}, {"measurement": "glycan array binding signal (z-score)", "setting": "[44]", "result": 1.71}, {"measurement": "glycan array binding signal (z-score)", "setting": "[45]", "result": -0.317}]}
